From paper PMC10614163 (ACS nano, 2023)

Conditions: pH 8

In the case of Cy5.5, the “critical total charge for coacervation” value is reported as 0.024 mM.
